The other results are listed elsewhere or left out.
B1: PhoQ; a variant is named by its letters at X, in order, P23837 (parent)
chain: MKKLLRLFFPLSLRVRFLLATAAVVLVLSLAYGMVALIGYSVSFDKTTFRLLRGESNLFYTLAKWENNKLHVELPENIDKQSPTMTLIYDENGQLLWAQRDVPWLMKMIQPDWLKSNGFHEIEADVNDTSLLLSGDHSIQQQLQEVREDDDDAEMTHSVAVNVYPATSRMPKLTIVVVDTIPVELKSSYMVWSWFIYVLSANLLLVIPLLWVAAWWSLRPIEALAKEVRELEEHNRELLNPATTRELTSLVRNLNRLLKSERERYDKYRTTLTDLTHSLKTPLXXLQXXLRSLRSEKMSVSDAEPVMLEQISRISQQIGYYLHRASMRGGTLLSRELHPVAPLLDNLTSALNKVYQRKGVNISLDISPEISFVGEQNDFVEVMGNVLDNACKYCLEFVEISARQTDEHLYIVVEDDGPGIPLSKREVIFDRGQRVDTLRPGQGVGLAVAREITEQYEGKIVAGESMLGGARMEVIFGRQHSAPKDE

Variants of: B1
Test: enrichment ratio after two sorts for PhoP signalling (ratio (wild type AVST 3.29)); higher = more functional
Conditions: with PhoP (E. coli)

Variant | enrichment ratio
FWEV | ≤ 0.25
IEDY | ≤ 0.25
KDQC | ≤ 0.25
RAGS | ≤ 0.25
RTIH | ≤ 0.25
DHHW | ≤ 0.25
DFKS | ≤ 0.25
PGWD | ≤ 0.25
AMIM | 29.3
TKEV | ≤ 0.25
HLLI | ≤ 0.25
FQDC | ≤ 0.25
DAMF | ≤ 0.25
HNRR | ≤ 0.25
VLGA | ≤ 0.25
DRAS | ≤ 0.25
YHSL | ≤ 0.25
WSIK | ≤ 0.25
IFRM | ≤ 0.25
KYNL | ≤ 0.25
NHEC | ≤ 0.25
RTTR | ≤ 0.25
PHHQ | ≤ 0.25
MIMC | ≤ 0.25
KRTA | ≤ 0.25
ERRM | ≤ 0.25

Variant | enrichment ratio
FYMI | ≤ 0.25
HFDA | ≤ 0.25
FEFL | ≤ 0.25
LKVF | ≤ 0.25
AMWN | ≤ 0.25
VTWG | ≤ 0.25
DEPP | ≤ 0.25
ITKS | ≤ 0.25
SSTY | 11.3
WLHT | ≤ 0.25
SEFT | 8.95
LGGE | ≤ 0.25
HYRL | ≤ 0.25
LLFP | ≤ 0.25
FVMA | ≤ 0.25
AMAI | 14.3
WPHM | ≤ 0.25
IEYW | ≤ 0.25
RIQH | ≤ 0.25
KHQA | ≤ 0.25
PASC | ≤ 0.25
FYQA | ≤ 0.25
LDHM | ≤ 0.25
VHCW | ≤ 0.25
EMIF | ≤ 0.25
RKWP | ≤ 0.25

Variant | enrichment ratio
LYMT | ≤ 0.25
SCYV | 0.272
PAHL | ≤ 0.25
IHKE | ≤ 0.25
RFDS | ≤ 0.25
RHRQ | ≤ 0.25
SQDE | ≤ 0.25
EACS | ≤ 0.25
NARI | ≤ 0.25
PIVW | ≤ 0.25
QAYM | ≤ 0.25
KIVH | ≤ 0.25
RMCQ | ≤ 0.25
NPWI | ≤ 0.25
RFQI | ≤ 0.25
WPFV | ≤ 0.25
FNCP | ≤ 0.25
GWVN | ≤ 0.25
AKRH | ≤ 0.25
AEDI | ≤ 0.25
KQRF | ≤ 0.25
DVIG | ≤ 0.25
EQLG | ≤ 0.25
SEYP | ≤ 0.25
RNSC | ≤ 0.25
YIRH | ≤ 0.25

Variant | enrichment ratio
VEWV | ≤ 0.25
FRSP | ≤ 0.25
WKMV | ≤ 0.25
FIRV | ≤ 0.25
FTYA | ≤ 0.25
DCLD | ≤ 0.25
QNIH | ≤ 0.25
EVRW | ≤ 0.25
SHCP | ≤ 0.25
VYWG | ≤ 0.25
GSRK | 0.319
LAVD | ≤ 0.25
KGTP | ≤ 0.25
FATS | ≤ 0.25
RKMF | ≤ 0.25
QYLL | ≤ 0.25
MIST | ≤ 0.25
EACL | ≤ 0.25
HMCP | ≤ 0.25
RQLG | ≤ 0.25
NPII | ≤ 0.25
WPWH | ≤ 0.25
RLSA | ≤ 0.25
ALWN | ≤ 0.25
EVLF | ≤ 0.25
DRAG | ≤ 0.25

Variant | enrichment ratio
QCFG | ≤ 0.25
NQIR | ≤ 0.25
ICVA | ≤ 0.25
HAVE | ≤ 0.25
MMTD | ≤ 0.25
AVSY | 9.25
NHRD | 1.6
TQQS | 3.45
KTIE | ≤ 0.25
QLKI | ≤ 0.25
QVDG | 30.4
LGCC | ≤ 0.25
AWDW | ≤ 0.25
FQDF | ≤ 0.25
DHSD | ≤ 0.25
FNAN | ≤ 0.25
PPER | ≤ 0.25
NWCS | ≤ 0.25
KVLP | ≤ 0.25
PKFR | ≤ 0.25
YMDS | ≤ 0.25
AWHQ | ≤ 0.25
KYAK | ≤ 0.25
KQPL | ≤ 0.25
FGHG | ≤ 0.25
DCCR | ≤ 0.25

Variant | enrichment ratio
PIDA | ≤ 0.25
QIAL | 4.65
LELY | ≤ 0.25
NGSW | ≤ 0.25
LLSF | ≤ 0.25
KYDY | ≤ 0.25
KSEN | ≤ 0.25
VIRI | ≤ 0.25
DAVA | ≤ 0.25
THTF | 0.991
WQGY | ≤ 0.25
SHEL | ≤ 0.25
QIIS | ≤ 0.25
YFGS | ≤ 0.25
YYWY | ≤ 0.25
HMES | ≤ 0.25
VLRG | ≤ 0.25
WILM | ≤ 0.25
IFLN | ≤ 0.25
MDVV | ≤ 0.25
ACTY | 3.59
VDAF | ≤ 0.25
RTLW | ≤ 0.25

From a collection of fitness landscapes (doi:10.1126/science.1257360)
